# In publication PMC4336329 (PLoS ONE, 2015):
# The campaign covered roughly 310,000 compounds. About 14,000 (4.5%) showed an effect of 50% or more. The effect is printed as a negative number. The list shows a part of the results.
# Target: human ether-à-go-go-related gene (hERG) potassium channel (human, UniProt Q12809)
# Assay: primary screen, population patch clamp on CHO cells stably expressing hERG
# 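Further: peak tail current of the secondary pulse compared with the same well before compound.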
# human ether-à-go-go-related gene (hERG) potassium channel, sequence (Q12809 whole entry, looked up): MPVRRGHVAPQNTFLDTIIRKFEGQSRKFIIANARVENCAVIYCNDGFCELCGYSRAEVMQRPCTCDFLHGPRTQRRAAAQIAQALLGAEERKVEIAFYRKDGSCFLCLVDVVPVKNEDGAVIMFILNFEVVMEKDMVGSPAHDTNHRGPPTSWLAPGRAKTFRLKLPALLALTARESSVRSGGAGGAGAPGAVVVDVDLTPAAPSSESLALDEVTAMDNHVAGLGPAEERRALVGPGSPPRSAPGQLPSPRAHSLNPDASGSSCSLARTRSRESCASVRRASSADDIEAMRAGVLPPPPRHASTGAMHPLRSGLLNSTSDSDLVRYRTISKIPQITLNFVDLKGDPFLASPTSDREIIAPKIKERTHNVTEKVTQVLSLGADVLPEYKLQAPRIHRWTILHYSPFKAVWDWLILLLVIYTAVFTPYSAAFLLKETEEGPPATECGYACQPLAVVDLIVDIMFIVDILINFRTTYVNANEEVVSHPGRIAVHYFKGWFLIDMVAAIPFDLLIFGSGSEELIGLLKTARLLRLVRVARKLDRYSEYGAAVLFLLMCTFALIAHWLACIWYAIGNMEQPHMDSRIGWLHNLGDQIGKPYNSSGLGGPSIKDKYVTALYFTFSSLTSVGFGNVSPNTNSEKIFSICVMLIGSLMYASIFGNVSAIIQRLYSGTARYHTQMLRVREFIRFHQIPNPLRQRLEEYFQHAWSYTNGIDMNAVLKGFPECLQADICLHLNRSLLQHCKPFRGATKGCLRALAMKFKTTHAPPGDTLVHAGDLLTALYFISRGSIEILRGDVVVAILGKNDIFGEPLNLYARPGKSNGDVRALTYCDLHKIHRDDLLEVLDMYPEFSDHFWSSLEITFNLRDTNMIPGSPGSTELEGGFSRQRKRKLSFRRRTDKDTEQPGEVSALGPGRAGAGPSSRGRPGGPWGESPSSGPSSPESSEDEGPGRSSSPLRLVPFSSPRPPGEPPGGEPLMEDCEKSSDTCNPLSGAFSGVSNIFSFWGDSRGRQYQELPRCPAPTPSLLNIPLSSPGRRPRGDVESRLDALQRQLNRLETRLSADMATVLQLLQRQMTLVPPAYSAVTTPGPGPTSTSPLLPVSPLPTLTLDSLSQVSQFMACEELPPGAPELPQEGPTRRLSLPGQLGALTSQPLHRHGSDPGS
row,Compound,"hERG current change (%, negative = inhibition) at 10uM [%]"
1,CCOc1ccc(C(=O)Nc2ccc(N3CCN(C)CC3)cc2)cc1Br,-15.1
2,CC(C)CC(=O)NC(=S)Nc1ccc(S(=O)(=O)N2CCN(C)CC2)cc1,-2.63
3,CCOC(=O)c1oc2ccccc2c1COC(=O)CNC(=O)c1ccccc1OC,-26
4,Cc1nc(=O)c(-c2ccccc2)c(C)n1-c1ccc(O)cc1,9.6
5,Cc1sc(NC(=O)CN(Cc2ccc(F)cc2)C(=O)C(C)(C)C)c(C(N)=O)c1C,-8.53
6,CCOC(=O)CSc1ccc2nnc(CCNS(=O)(=O)c3ccc(C)cc3)n2n1,4.23
7,CCN1CN=C(NS(=O)(=O)c2ccc(C)cc2)NC1,3.6
8,CCOC(=O)c1cnc2c(ccc3ccccc32)c1NCCN(C)C,-7.47
9,CC(C)Cc1cc(C(=O)N2CCCC(C(=O)c3cc(F)ccc3F)C2)n(C)n1 (stereo not drawn),-15.7
10,O=C(Nc1cccnc1)C1COc2ccccc2O1 (stereo not drawn),-1.56
11,CC(=O)Nc1ccc(OC(=O)c2ccc(Cl)cc2)cc1,12
12,Cn1c(=O)c2c(nc(CN3CCN(c4ccccc4)CC3)n2CCc2ccccc2)n(C)c1=O,-33.7
13,CC(C)C[C@H](NC(=O)c1nc[nH]c1C(=O)N1CC[NH2+]CC1)C(=O)OCc1ccccc1.[Cl-],20.5
14,COC(=O)c1ccccc1NC(=O)CSc1nnnn1C,-9.06
15,COc1ccc(OC)c(C(=O)COC(=O)c2cccnc2Cl)c1,-10.1
16,O=C(CSc1nc2ccccc2c(=O)n1CC1CCCO1)Nc1ccccc1Cl (stereo not drawn),-22.1
17,O=C(Nc1ccccn1)C1CCN(C(=O)Nc2ccccc2)CC1,4.81
18,NC(=O)c1cccnc1Sc1ccc(Cl)cc1,-9.35
19,COc1cc(CN2CCNC(=O)C2CC(=O)O)cc(OC)c1 (stereo not drawn),2.55

row,Compound,"hERG current change (%, negative = inhibition) at 10uM [%]"
1,Cc1cccc(OCC(=O)Nc2ccc(N3CCN(S(C)(=O)=O)CC3)cc2)c1C,0.423
2,COc1nc(Nc2ccc(C(C)=O)cc2)nc(OC)n1,-8.58
3,CCC(C)c1ccccc1NC(=S)Nc1cccnc1 (stereo not drawn),13.5
4,CCOc1ccc(S(=O)(=O)Nc2ccc(C(=O)NCC(C)(C)N3CCOCC3)cc2)cc1,-6.45
5,CC(C)N(C(=O)CSc1nn2c(=O)c(C(C)(C)C)nnc2s1)c1ccccc1,-2.77
6,Cc1cc(C(=O)O)sc1C,16.1
7,O=C(O)C1C2C=CC3(CN(Cc4ccco4)C(=O)C13)O2 (stereo not drawn),10.8
8,COc1ccc(C(=O)OCC(=O)Nc2ccc3c(c2)OCCO3)c(OC)c1,12.1
9,Nc1nc(-c2cccc(NS(=O)(=O)c3ccccc3)c2)cs1,-6.06
10,CCC(C(=O)Nc1ccc(S(=O)(=O)N(C)C2CCN(C)CC2)cc1)c1ccccc1 (stereo not drawn),-0.565
11,COc1cc(C)ccc1OCCOc1c(Cl)cc(Cl)cc1Cl,5.91
12,Cc1cc(C)nc(SCc2ccc(C(=O)O)o2)n1,4.23
13,O=C1CC2(CCN(C(=O)COc3ccc(Cl)cc3)CC2)Oc2ccccc21,-85.8
14,O=[N+]([O-])c1ccc(-c2csc(N3CCCCCC3)n2)cc1,16.8
15,COc1ccc(C(C(N)=O)c2ncc(C(F)(F)F)cc2Cl)cc1OC (stereo not drawn),11
16,O=C(NC(=S)NNS(=O)(=O)c1ccc(Cl)cc1)c1cccnc1,18.6
17,COc1nc(OC)nc(N2CCC(C(=O)NC3CCCCCC3)CC2)n1,1.3
18,Nc1ccc(S(=O)(=O)Nc2nc(-c3ccccc3)cc(-c3ccccc3)n2)cc1,21.6
19,Cc1ccc(S(=O)(=O)c2cc(C#N)c(=O)[nH]c2N)cc1,16.8

row,Compound,"hERG current change (%, negative = inhibition) at 10uM [%]"
1,CCc1ccc(C(=O)CN2C(=O)NC3(CCOc4ccccc43)C2=O)s1 (stereo not drawn),-42.2
2,CCCCCCc1cc2cc(C(=O)OCC)c(=O)oc2cc1O,23.3
3,CC(C)(C)NC(=O)C1c2ccccc2Oc2ccccc21,10.1
4,CCCCCCN1N=C(C)C(C(=O)c2ccc(Cl)cc2)C1=O (stereo not drawn),11.4
5,O=C(Nc1ccc(S(=O)(=O)Nc2ncccn2)cc1)c1cccnc1,22
6,C=CCSc1nnc(-c2ccncc2)n1-c1ccc(OCC)cc1,-41.5
7,C[C@@H](C(=O)Nc1ccc2c(c1)OCCO2)n1c(=O)[nH]c2ccccc2c1=O,11.7
8,COc1ccc(N2CCN(C(=O)c3ccc(C(C)(C)C)cc3)CC2)cc1,-15
9,O=C(NCCN1CCOCC1)C1CCC(CNS(=O)(=O)c2ccccc2)CC1 (stereo not drawn),7.48
10,COC(=O)N1C/C=C\C(c2ccc(OC)cc2)N(Cc2ccc(F)cc2)C(=O)C1 (stereo not drawn),-2.29
11,N#Cc1ccccc1S(=O)(=O)N1CCN(c2cnccn2)CC1,-4.79
12,COc1cccc(CN2C(=O)C(C)N(C(=O)c3c(F)cccc3F)c3ccccc32)c1 (stereo not drawn),15.8
13,Cc1cccc(NC(=S)NCC2CCCO2)c1 (stereo not drawn),-1.07
14,COc1ccc(C2CC(c3ccccc3)Nc3ncnn32)cc1 (stereo not drawn),-24.7
15,Nc1nnc(SCC(=O)Nc2ccc3c(c2)OCCO3)s1,-1.45
16,C=CCNc1nc(C(=O)OCC(=O)Nc2cc(S(C)(=O)=O)ccc2Cl)cs1,-5.31
17,CCOc1ccccc1-n1c(=S)sc2c(=O)n(-c3ccc(F)cc3)c(SCC(=O)O)nc21,21.4
18,CC(C)(C)Nc1nc(Nc2ccc([N+](=O)[O-])cc2)nc(NC(C)(C)C)n1,27.5
19,CCOC(=O)Cn1nc(C)c(NC(=O)c2ccc(Cl)c([N+](=O)[O-])c2)c1C,14.2
